US20250296984A1, “THERAPEUTIC AND DIAGNOSTIC AGENTS AND USES THEREOF” (priority 2022, published 2025)

Target: Peptide-N-BSA (human cytomegalovirus)
Assay: ELISA, Peptide-N-BSA coated

B1: US28-4-2F5B11 (antibody, mouse IgG1, kappa)
heavy: EVQLQESGAELAKPGASVKMSCKASGYTFSSYWIHWIKQRPGQGLEWIGYINPNTAYTEFNQKFMDKATLTADKSSSTAYMQLTSLTSEDSAVYYCARLRSDRTGFAYWGQGTLVTVSAAKTTPPSVYPLAPGSAAQTNSMVTLGCLVKGYFPEPVTVTWNSGSLSSGVHTFPAVLQSDLYTLSSSVTVPSSTWPSETVTCNVAHPASSTKVDKKIVPRDCGCKPCICTVPEVSSVFIFPPKPKDVLTITLTPKVTCVVVDISKDDPEVQFSWFVDDVEVHTAQTQPREEQFNSTFRSVSELPIMHQDWLNGKEFKCRVNSAAFPAPIEKTISKTKGRPKAPQVYTIPPPKEQMAKDKVSLTCMITDFFPEDITVEWQWNGQPAENYKNTQPIMDTDGSYFIYSKLNVQKSNWEAGNTFTCSVLHEGLHNHHTEKSLSHSPGK
light: QIVLTQSPSSLAVSVGEKVTMS[about 80 residues not printed][about 120 residues not printed]
In the case of B1, the absorbance is reported as 2.8.

B2: US28-4-4H3C3 (antibody, mouse IgG1, kappa)
heavy: QVQLQQSGAELAKPGASVKMSCKASGYTFTSYWMHWVKQRPGQGLEWIGYINPSTGYAEYNQKFKDKATLTADKSSSTAYMQLSSLTSEDSAVYYCARLRFGSSGFAYWGQGTLVTVSSAKTTPPSVYPLAPGSAAQTNSMVTLGCLVKGYFPEPVTVTWNSGSLSSGVHTFPAVLQSDLYTLSSSVTVPSSTWPSETVTCNVAHPASSTKVDKKIVPRDCGCKPCICTVPEVSSVFIFPPKPKDVLTITLTPKVTCVVVDISKDDPEVQFSWFVDDVEVHTAQTQPREEQFNSTFRSVSELPIMHQDWLNGKEFKCRVNSAAFPAPIEKTISKTKGRPKAPQVYTIPPPKEQMAKDKVSLTCMITDFFPEDITVEWQWNGQPAENYKNTQPIMDTDGSYFIYSKLNVQKSNWEAGNTFTCSVLHEGLHNHHTEKSLSHSPGK
light: QIVLTQSPSSLAVSVGEKVTMS[about 80 residues not printed][about 120 residues not printed]
With B2 the absorbance was 2.75.
